PMC7139218, “Structural Basis for Rab8a Recruitment of RILPL2 via LRRK2 Phosphorylation of Switch 2” (Structure(London, England:1993), 2020)
Positions count from the first letter of the chain named. These are yes or no findings as the source states them, for the method shown. In cells and extracts the contact can be indirect. Some results given as binding are weak or reduced against the parent protein; the word gives no strength. Sequences can lack the tags named with a protein.

Sequences of proteins named here, by UniProt entry; tags and fusion partners are left off.
UniProt P61006: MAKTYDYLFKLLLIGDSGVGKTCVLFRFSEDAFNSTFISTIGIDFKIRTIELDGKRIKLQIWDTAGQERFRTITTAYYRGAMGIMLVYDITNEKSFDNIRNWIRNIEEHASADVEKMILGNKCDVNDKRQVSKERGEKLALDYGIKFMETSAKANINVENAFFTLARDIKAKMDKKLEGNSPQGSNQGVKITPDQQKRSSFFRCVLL

Tests used:
Experiment in all cases: co-IP; HEK293 cells co-expressing Flag-LRRK2 (R1441G or Y1699C), HA-Rab and GFP-tagged effector, no MLi-2; GFP fusion precipitated with GFP binder Sepharose, 1 h, washed in 50 mM Tris-HCl pH 7.5, 150 mM NaCl; immunoblot
[1] = biological target: T1, JIP3-GFP (full length) (UniProt Q9UPT6)
T1 sequence: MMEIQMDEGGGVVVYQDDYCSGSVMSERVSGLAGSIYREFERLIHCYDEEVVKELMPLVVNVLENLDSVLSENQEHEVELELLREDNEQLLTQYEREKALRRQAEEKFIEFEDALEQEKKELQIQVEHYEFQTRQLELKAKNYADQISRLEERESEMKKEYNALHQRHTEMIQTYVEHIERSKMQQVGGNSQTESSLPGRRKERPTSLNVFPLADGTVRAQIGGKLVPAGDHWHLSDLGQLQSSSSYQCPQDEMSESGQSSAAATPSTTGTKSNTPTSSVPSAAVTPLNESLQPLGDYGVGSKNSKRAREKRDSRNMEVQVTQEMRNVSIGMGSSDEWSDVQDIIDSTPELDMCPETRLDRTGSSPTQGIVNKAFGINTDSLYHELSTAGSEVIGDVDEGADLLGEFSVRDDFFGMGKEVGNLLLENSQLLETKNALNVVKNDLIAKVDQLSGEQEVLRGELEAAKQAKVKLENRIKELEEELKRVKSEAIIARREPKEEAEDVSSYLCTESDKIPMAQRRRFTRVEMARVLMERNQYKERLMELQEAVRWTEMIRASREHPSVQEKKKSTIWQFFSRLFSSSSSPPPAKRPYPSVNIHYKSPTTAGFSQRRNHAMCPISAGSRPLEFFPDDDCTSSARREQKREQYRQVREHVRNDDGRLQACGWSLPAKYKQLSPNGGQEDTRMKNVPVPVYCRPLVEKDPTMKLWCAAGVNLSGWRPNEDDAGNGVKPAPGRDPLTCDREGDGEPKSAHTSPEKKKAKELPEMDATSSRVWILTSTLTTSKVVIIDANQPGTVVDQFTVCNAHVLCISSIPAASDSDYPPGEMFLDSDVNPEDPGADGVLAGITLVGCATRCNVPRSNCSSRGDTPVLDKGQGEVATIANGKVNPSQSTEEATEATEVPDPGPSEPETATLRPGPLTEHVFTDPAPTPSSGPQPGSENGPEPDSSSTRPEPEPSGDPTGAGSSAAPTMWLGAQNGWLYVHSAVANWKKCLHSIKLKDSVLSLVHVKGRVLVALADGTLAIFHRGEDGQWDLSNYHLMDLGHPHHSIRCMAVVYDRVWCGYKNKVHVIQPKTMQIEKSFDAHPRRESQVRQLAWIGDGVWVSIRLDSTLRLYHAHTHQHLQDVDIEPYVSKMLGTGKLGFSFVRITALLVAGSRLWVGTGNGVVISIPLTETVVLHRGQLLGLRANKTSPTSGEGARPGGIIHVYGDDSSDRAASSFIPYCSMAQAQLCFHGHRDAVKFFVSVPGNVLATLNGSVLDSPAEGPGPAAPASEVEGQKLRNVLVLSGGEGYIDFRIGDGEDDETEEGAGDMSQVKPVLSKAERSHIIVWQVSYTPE

[2] = biological target: T2, RILPL2-GFP K149E (human) (UniProt Q969X0)
T2 sequence: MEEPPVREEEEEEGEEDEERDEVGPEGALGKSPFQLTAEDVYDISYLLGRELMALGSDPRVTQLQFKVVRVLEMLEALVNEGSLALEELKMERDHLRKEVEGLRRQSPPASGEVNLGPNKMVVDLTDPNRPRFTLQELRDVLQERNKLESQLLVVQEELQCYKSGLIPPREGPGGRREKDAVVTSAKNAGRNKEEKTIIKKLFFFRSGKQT

[3] = biological target: T3, RILPL2-GFP K149A (human) (UniProt Q969X0)
T3 sequence: T2 sequence with E149A

[4] = biological target: T4, RILPL2-GFP K149Q (human) (UniProt Q969X0)
T4 sequence: T2 sequence with E149Q

[5] = biological target: T5, RILPL2-GFP WT (full length) (human) (UniProt Q969X0)
T5 sequence: T2 sequence with E149K

binding [1]: binds weakly
binding [2]: no binding
binding [3]: no binding
binding [4]: no binding
binding [5]: binds
Substance: HA-Rab8a WT, LRRK2-phosphorylated (pT72) (from UniProt P61006 1-207)
